# Test results published in article PMC4336329 (PLoS ONE, 2015).
# Among all 310,000 compounds or so, about 2,200 (0.71%) showed an effect of 50% or more. Effects have a minus sign here. This is one part of the list.
# Biological target: human ether-à-go-go-related gene (hERG) potassium channel (human, UniProt Q12809)
# Assay: primary screen, population patch clamp on CHO cells stably expressing hERG
# Chain of human ether-à-go-go-related gene (hERG) potassium channel (Q12809 whole entry, looked up): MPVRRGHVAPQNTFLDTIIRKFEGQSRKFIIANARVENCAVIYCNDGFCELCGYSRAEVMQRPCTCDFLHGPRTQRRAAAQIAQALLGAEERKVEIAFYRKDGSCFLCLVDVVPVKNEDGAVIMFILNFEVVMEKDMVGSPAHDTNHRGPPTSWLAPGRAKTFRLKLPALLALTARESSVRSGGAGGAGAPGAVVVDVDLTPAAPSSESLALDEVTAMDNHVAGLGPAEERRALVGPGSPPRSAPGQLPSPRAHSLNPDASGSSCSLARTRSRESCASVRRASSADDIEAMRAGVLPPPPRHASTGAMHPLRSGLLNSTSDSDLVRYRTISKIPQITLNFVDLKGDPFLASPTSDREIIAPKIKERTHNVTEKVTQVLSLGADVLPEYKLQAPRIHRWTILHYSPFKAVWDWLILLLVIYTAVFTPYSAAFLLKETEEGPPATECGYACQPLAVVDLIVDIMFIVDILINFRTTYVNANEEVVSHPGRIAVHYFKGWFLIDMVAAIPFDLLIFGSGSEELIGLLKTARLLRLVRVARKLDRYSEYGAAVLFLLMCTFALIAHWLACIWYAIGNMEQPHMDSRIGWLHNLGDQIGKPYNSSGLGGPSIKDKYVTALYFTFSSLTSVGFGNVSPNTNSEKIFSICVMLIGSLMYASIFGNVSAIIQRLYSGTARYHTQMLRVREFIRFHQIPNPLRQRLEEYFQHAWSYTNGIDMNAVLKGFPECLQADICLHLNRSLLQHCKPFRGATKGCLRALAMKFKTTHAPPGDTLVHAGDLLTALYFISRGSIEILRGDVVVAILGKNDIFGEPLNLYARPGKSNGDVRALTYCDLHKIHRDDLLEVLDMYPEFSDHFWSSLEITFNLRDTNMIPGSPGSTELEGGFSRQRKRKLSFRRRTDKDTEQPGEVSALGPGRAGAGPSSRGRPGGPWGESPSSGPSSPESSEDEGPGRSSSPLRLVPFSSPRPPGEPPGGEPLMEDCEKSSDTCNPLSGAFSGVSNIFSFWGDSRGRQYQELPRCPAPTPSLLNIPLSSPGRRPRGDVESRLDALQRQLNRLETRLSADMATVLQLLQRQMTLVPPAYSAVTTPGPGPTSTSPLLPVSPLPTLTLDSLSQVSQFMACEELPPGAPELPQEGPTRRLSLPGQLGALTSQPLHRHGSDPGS
row,Compound,"hERG current change (%, negative = inhibition) at 1uM [%]"
1,Nc1cccc(C2=Nc3cccc4cccc(c34)N2)c1,3.65
2,COc1cccc(OC(=O)N2CCOCC2)c1,9.6
3,COc1ccc(-n2c(N)cc(=O)[nH]c2=O)cc1,7.51
4,Cc1cccc(N(C(=O)Cc2cccs2)C(C(=O)NCc2ccco2)c2ccncc2)c1 (centres unmarked),8.56
5,CC(C)Oc1cccc(C(=O)C2CCCN(Cc3cccn3-c3cccnc3)C2)c1 (centres unmarked),12.4
6,CCn1cc(C(=O)NCCc2ccc(OC)c(OC)c2)c(=O)c2cc(S(=O)(=O)N3CCOCC3)ccc21,8.59
7,Cn1c(C(=O)OCC(=O)NCc2ccc(F)cc2)cc2occc21,-6.25
8,CC(C)(C)c1ccc2c(c1)OC(C(=O)N/N=C\c1ccncc1)CO2 (centres unmarked),9.54
9,CSc1ccccc1OCc1cc(C(=O)NCCC2=CCCCC2)no1,-4.18
10,COc1cc(CN(C)Cc2nc3cc(C(F)(F)F)ccc3c(=O)[nH]2)ccc1OC(F)F,-2.58
11,COc1ccccc1CN(C)C(=O)c1ccc(S(=O)(=O)NCc2ccco2)cc1,9.37
12,CN1CCN(C(=O)CN(C)S(=O)(=O)c2ccc3ccccc3c2)CC1,9.93
13,Cn1cnc2c1c(=O)n(Cc1ccc(Cl)cc1Cl)c(=O)n2C,14.4
14,COc1ccc(C(=O)NCC2CCCCC2)cc1S(=O)(=O)N1CCCC1,-3.08
15,Cc1ccccc1NC(=O)c1c2c(nc3ccccc13)CCC2,7.88
16,COc1cc(SC)ccc1C(=O)NCCCn1ccnc1,-0.336
17,Cc1nn(Cc2ccccc2)c(C)c1/C=N/NC(=O)c1ccccc1O,1.67
18,CC(C)CCCN1CCN=C1N(C)C,12.5
19,CCCOc1ccc(S(=O)(=O)NCc2ccc(OC)cc2)cc1,2.08
20,CC(C)NC(=S)N(CCc1ccncc1)C(C)C,-0.63
21,CCN1CCN(c2ccc([N+](=O)[O-])c(Sc3nc4ccccc4[nH]3)c2)CC1,-43.8
22,CN(C)N1C(N)=C(C#N)C(c2cccs2)C2=C1CCCC2=O (centres unmarked),9.76
23,O=S(=O)(c1ccccc1)N(Cc1ccccc1)c1ccccn1,10.3
24,CCOCCOC(=O)c1[nH]c2c(c1C)C(=O)CC(c1ccc(OC)c(OC)c1)C2 (centres unmarked),5.15
25,CC(C)CNC(=O)C(=O)NNC(=O)c1ccco1,16.6
26,COc1cccc(-c2nnc(-c3ccccc3[N+](=O)[O-])o2)c1,10.8
